Assay results as given in PubChem BioAssay AID504706 (National Center for Advancing Translational Sciences (NCATS), 2011).
The whole screen tested about 320,000 compounds, of which about 200 (0.062%) were called active. The shares of active, inactive and inconclusive entries below differ from those in the screen. The call rests on the fitted dose curve; in most records, active means well fitted activation curve with a large enough effect; inconclusive means small, poorly fitted or top-dose-only effect; inactive means no such curve, though single readings can be large or run the other way. Potencies of inconclusive entries are left out as doubtful fits.

Test: qHTS assay for re-activators of p53 using a Luc reporter; further: nearly all actives have a fitted effect of over 45% in size; on activity change, positive = activation: % of control where 0% means no effect
Conditions: H1299 p53-A138V BP100-luciferase reporter, luminescence, 24 h; series mostly up to 92.2 µM; activity change, positive = activation: at the top concentration
Summary of the method: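 p53-null H1299 cells stably carrying temperature-sensitive p53-A138V and a BP100-luciferase reporter were pinned with compounds (4-point, 1:5 series) and held 24 hrs at 37 deg C. Luminescence was read 10 min after detection reagent.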
Potency means the concentration at half of the fitted maximal effect; tags describe the fitted curve by direction and shape.

Structure (SMILES)	Potency	activity change, positive = activation
COc1ccccc1OCC(=O)Nc1nc(C)c(C)s1	inconclusive [activator, full curve, poor fit]	
CCOC(=O)C1CCN(S(=O)(=O)c2ccc(-c3nc4ccccc4s3)s2)CC1	inconclusive [activator, partial curve, poor fit]	
Fc1cc(Br)ccc1NC(=S)Nc1ccccc1	inconclusive [activator, full curve, poor fit]	
COC(=O)c1ccc(N2CCCCC2)c(N)c1	inconclusive [activator, single point]	
Nc1nc2ncc(-c3ccsc3)c(N)n2n1		inactive: -3.67%
CCCCCCCC(=O)NNC(=O)c1ccc(F)cc1		inactive: -3.24%
COc1ccc(F)cc1S(=O)(=O)Nc1ccncc1	inconclusive [activator, single point]	
Cc1sc2nc(-c3ccncc3)[nH]c(=O)c2c1-c1ccccc1		inactive: 3.7%
COc1ccc(C(=O)Nc2ccccc2C(=O)Nc2ccncc2)cc1		inactive: -5.26%
COc1ccc2oc(C(=O)OCC(=O)N3CCCCC3)c(C)c2c1	inconclusive [activator, partial curve, poor fit]	
CC(C)(C)c1ccc(-c2cc(C(=O)NNC(=O)Nc3ccccc3)c3ccccc3n2)cc1	inconclusive [activator, full curve, poor fit]	
CCc1nnc(NC(=O)CSc2nc3c(cc2C#N)CCCC3)s1	inconclusive [activator, full curve, poor fit]	
Cc1ccc(S(=O)(=O)NN2C(=O)/C(=C/c3cccc(F)c3)SC2=S)cc1	inconclusive [activator, partial curve, poor fit]	
O=C(OCc1nnc(-c2ccccc2)o1)c1ccc(S(=O)(=O)NCc2ccco2)cc1	inconclusive [activator, single point]	
CN(C)c1cnn(-c2ccccc2)c(=O)c1Cl	inconclusive [activator, partial curve, poor fit]	
COc1ccc(C(=O)Nc2ccccc2C(=O)N/N=C/c2ccco2)cc1	inconclusive [activator, partial curve, poor fit]	
CCc1c(O)nc(SCC(=O)Nc2ccc3c(c2)CCC3)[nH]c1=O	inconclusive [activator, single point]	
Cc1cccc(/C(N)=N/OC(=O)c2ccco2)c1	inconclusive [activator, partial curve, poor fit]	
Cc1cccc(NC(=O)c2ccc(N3CCCCC3)c([N+](=O)[O-])c2)n1	inconclusive [activator, partial curve, poor fit]	
Clc1ccc2c(c1)CNc1c(ncnc1N1CCOCC1)O2	inconclusive [activator, full curve, poor fit]	
O=C1CC(N(CCc2ccccc2)C(=S)Nc2ccccc2)C(=O)N1c1ccc(Br)cc1 (centres undefined)	inconclusive [activator, single point]	
CCOC(=O)C(=N/O)/C(C)=N/NC(=O)C(=O)Nc1ccc(Cl)cc1		inactive: 1.55%

Structure (SMILES)	Potency	activity change, positive = activation
CN(c1ccc(C(=O)N2CCOCC2)cc1[N+](=O)[O-])C1CCCCC1	inconclusive [activator, partial curve, poor fit]	
CNc1cnn(-c2ccccc2)c(=O)c1Cl	inconclusive [activator, partial curve, poor fit]	
CCOC(=O)c1[nH]c2ccccc2c1NC(=S)Nc1ccccc1	inconclusive [activator, partial curve, poor fit]	
CC(C)(C)c1ccc(C(=O)Nc2cccc([N+](=O)[O-])c2)cc1	inconclusive [activator, partial curve, poor fit]	
COc1ccc(-c2oc(NC(=O)CCl)c(C#N)c2-c2ccc(OC)cc2)cc1		inactive: -10.8%
Cc1cc(C(=O)Nc2cccc(O)c2)co1	inconclusive [activator, partial curve, poor fit]	
c1ccc(-c2cnnc(N3CCCCC3)n2)cc1	inconclusive [activator, full curve, poor fit]	
COc1ccc(-c2noc(CCC(=O)NCC3CCCO3)n2)cc1OC (centres undefined)		inactive: -4.69%
Cc1c(NC(=O)COC(=O)c2cc(-c3ccc(-c4ccccc4)cc3)nc3ccccc23)c(=O)n(-c2ccccc2)n1C	inconclusive [activator, full curve, poor fit]	
CC(OC(=O)c1ccc(S(=O)(=O)N2CCCCC2)cc1)C(=O)NC1CCCCC1C (centres undefined)		inactive: 27.5%
c1ccc2sc(-c3ccc4c(c3)OCO4)nc2c1	inconclusive [activator, full curve, poor fit]	
Cc1ccc2c(c1)C1NC(=S)NC(C)(O2)C1C(=O)Nc1ccc(Cl)cc1 (centres undefined)		inactive: 4.28%
COc1ccccc1C(=O)OCc1cc(=O)n2ccsc2n1	inconclusive [activator, partial curve, poor fit]	
Cc1cc(C(=O)N/N=C/c2cccn2C)n[nH]1	inconclusive [activator, partial curve, poor fit]	
O=C(c1cccc(S(=O)(=O)N2CCCC2)c1)N1CCCC(C(F)(F)F)C1 (centres undefined)		inactive: -0.734%
Cc1ccc(C)c(S(=O)(=O)Nc2ccc(S(=O)(=O)Nc3ncccn3)cc2)c1		inactive: -1.24%
CC1CCC(NC(=O)c2cc3ccccc3cc2O)CC1 (centres undefined)	inconclusive [activator, full curve]	
CC(=Nc1ccc(C)c(C)c1)C1=C(O)CSC1=O	inconclusive [activator, full curve, poor fit]	
CCOc1ccc(C(=O)c2cccs2)cc1	inconclusive [activator, partial curve, poor fit]	
CCCCc1ccc(S(=O)(=O)NNC(=S)NCc2ccco2)cc1		inactive: 2.17%
COc1ccccc1CNC(=O)COc1ccccc1OC		inactive: -6.44%
COCC(=O)Nc1nc2ccc(C)cc2s1	inconclusive [activator, partial curve, poor fit]	
